Data as given in article PMC4336329 (PLoS ONE, 2015).
The campaign covered roughly 310,000 compounds. About 14,000 (4.5%) showed an effect of 50% or more. The effect is printed as a negative number. The list shows a part of the results.

molecular target: human ether-à-go-go-related gene (hERG) potassium channel (human, UniProt Q12809); assay: primary screen, population patch clamp on CHO cells stably expressing hERG
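Also: peak tail current of the secondary pulse compared with the same well before compound.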

Chain of human ether-à-go-go-related gene (hERG) potassium channel (Q12809 whole entry, looked up): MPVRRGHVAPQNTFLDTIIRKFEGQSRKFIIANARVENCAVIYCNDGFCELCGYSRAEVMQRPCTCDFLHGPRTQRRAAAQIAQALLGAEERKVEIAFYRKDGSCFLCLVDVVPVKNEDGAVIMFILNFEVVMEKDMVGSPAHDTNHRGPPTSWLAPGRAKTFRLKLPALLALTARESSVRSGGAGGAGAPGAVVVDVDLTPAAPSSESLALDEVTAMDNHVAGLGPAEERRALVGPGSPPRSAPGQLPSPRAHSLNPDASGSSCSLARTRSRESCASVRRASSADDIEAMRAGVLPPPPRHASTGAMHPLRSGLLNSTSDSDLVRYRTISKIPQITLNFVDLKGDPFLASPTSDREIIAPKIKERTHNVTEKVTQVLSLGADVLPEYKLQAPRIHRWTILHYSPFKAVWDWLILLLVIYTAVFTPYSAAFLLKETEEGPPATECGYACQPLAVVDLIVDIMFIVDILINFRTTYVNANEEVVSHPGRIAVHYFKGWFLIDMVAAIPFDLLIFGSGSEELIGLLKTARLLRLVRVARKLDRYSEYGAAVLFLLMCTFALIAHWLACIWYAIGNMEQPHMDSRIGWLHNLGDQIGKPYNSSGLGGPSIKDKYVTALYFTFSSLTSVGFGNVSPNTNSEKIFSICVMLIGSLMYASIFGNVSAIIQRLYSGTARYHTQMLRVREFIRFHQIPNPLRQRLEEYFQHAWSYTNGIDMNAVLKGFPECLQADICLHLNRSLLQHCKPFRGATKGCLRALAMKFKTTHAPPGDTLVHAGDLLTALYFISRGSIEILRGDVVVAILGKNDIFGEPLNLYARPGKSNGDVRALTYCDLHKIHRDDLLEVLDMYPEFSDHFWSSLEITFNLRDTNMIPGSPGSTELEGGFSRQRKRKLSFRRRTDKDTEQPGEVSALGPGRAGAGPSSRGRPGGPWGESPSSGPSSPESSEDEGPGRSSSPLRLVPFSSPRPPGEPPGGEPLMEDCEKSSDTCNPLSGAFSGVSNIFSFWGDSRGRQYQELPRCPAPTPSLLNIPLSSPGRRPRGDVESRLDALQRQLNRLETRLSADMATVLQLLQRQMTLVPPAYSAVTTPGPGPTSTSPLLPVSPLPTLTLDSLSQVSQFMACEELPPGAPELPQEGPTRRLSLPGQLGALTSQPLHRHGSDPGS

SMILES	hERG current change (%, negative = inhibition) at 10uM [%]
COc1ccc(CCNC(=O)CCCN2C(=O)c3ccccc3C2=O)cc1	2.74
O=C(NC(=O)c1ccccc1)Nc1ccc(-c2cnco2)cc1	19.9
Cn1c(C(=O)NCCC2=CCCCC2)cc2c(=O)n3ccccc3nc21	19.7
CCN(CC(=O)NCc1ccc(Cl)cc1)C(=O)/C=C/c1ccco1	-11.9
CCOC(=O)C1=C(C)N(c2ccccc2)C(=O)C1	7.58
CCCCOc1ccc(NC(=S)Nc2cc(C)nc(SCCCC)n2)cc1	16.3
O=c1c[n+]([O-])c2ccccc2n1OCc1ccccn1	18.9
COc1ccc(C2=NOC(C(=O)NCc3ccccc3)C2)cc1 (centres unmarked)	-1.01
COc1ccc(N2CC(C(=O)Nc3ccc(S(=O)(=O)N4CCCCC4)cc3)CC2=O)cc1 (centres unmarked)	18
O=C(c1cccnc1)N1CCN(c2c(Cl)cccc2[N+](=O)[O-])CC1	-46
CC1(c2ccccc2)NC(=O)N(CC(=O)NCCC2=CCCCC2)C1=O (centres unmarked)	13.1
CCn1nnnc1SCC(=O)Nc1nc2ccccc2s1	17
CCCCOc1ccc(NS(=O)(=O)c2ccc(-n3cnnn3)cc2)cc1	-3.42
CCc1cc(=O)oc2cc(OCC(=O)NCCCN3CCCC3=O)ccc12	9.65
O=C(CCn1c(=O)c2ccccc2n(Cc2cc(=O)n3ccccc3n2)c1=O)NCc1ccco1	-4.21
Cc1ccc(-c2nnc(-c3ccccc3)o2)cc1	9.14
O=C(O)C1CCCCN1S(=O)(=O)c1cccc2nsnc12 (centres unmarked)	8.43
CSc1ccccc1C(=O)NCC(c1ccco1)N1CCCCC1 (centres unmarked)	-15.7
CN1CCC(NC(=O)c2cc(-c3cccc(Br)c3)nc3ccccc23)CC1	-69.7
CCOc1ccc(CNS(=O)(=O)c2c(C(=O)N3CCCC3)c(C)n(C)c2C)cc1OC	8.09
Cc1cc(Cl)ccc1NC(=O)CCC(=O)N/N=C/c1cccnc1	-0.00262
CN(C)CC(C)(C)CNC(=S)Nc1ccc(S(=O)(=O)N2CCOCC2)cc1	-8.26
COc1ccc(/C=C/C(=O)N2CCNC(=O)C2)c(OC)c1	27.9

SMILES	hERG current change (%, negative = inhibition) at 10uM [%]
O=C(N(c1ccccn1)c1ccccn1)C12CC3CC(CC(C3)C1)C2	-7.28
CCN1C(=O)/C(=C\N2CCN(c3cccc(Cl)c3)CC2)SC1=S	4.69
COC(=O)N/N=C\c1cc2c(cc1Br)OCO2	-11.4
COc1cccc(N2CCN(C(=O)CCC(=O)c3ccc(Cl)s3)CC2)c1	-34.5
CC(C)c1nc(CNC(=O)C2CCC(=O)N(CCc3cccc(F)c3)C2)cs1 (centres unmarked)	-4.31
CCN(CC)c1ccc(NC(=O)CSc2nc3nc(C)cc(C)c3c(=O)[nH]2)cc1	-4.86
CCn1nc(NS(=O)(=O)c2ccc([N+](=O)[O-])cc2)c2cc3cc(C)ccc3nc21	15.9
CCOC(=O)CN1C(=O)C(=O)c2cc(C)ccc21	10.6
COc1ccc(-n2c(SCC(=O)NCC3CCCO3)nc3c([nH]c4ccccc43)c2=O)cc1OC (centres unmarked)	24.5
N#Cc1cc(-c2ccccc2)oc1/N=C/c1ccccc1O	-1.86
O=[N+]([O-])/C(C(Cl)=C(Cl)Cl)=C(/Sc1ccccc1)N1CCCCC1	4.71
CC(Oc1ccccc1)C(=O)Nc1ccc(NC(=O)c2ccccc2)cc1 (centres unmarked)	9.01
COc1ccc(/C=C2\SC(N3CCCCC3)=NC2=O)cc1	-4.52
CC(=O)c1ccc(NC(=O)C(C)Oc2ccc(N(C)S(=O)(=O)c3ccc(C)cc3)cc2)cc1 (centres unmarked)	-4.31
C=C(C)C1CCC(C)=C1COC(=O)Nc1ccccc1 (centres unmarked)	-6.21
Cc1noc(/C=C/c2ccccc2F)c1S(=O)(=O)N1CCC(C(=O)N2CCN(C)CC2)CC1	-19.5
NC(=O)COc1ccc(C(=O)/C=C2/C(=O)Nc3ccccc32)cc1	14.6
N#CC(c1nc2ccccc2nc1N1CCOCC1)S(=O)(=O)c1ccccc1 (centres unmarked)	17.9
CCOc1ccc(OCC)c(NC(=O)Nc2ccc3c(c2)N(C)C(=O)CS3)c1	-14.7
O=C(NC1CCCCC1)C1CCN(C(=O)c2ccccc2Cl)CC1	22.2
O=C(CCl)NC(Cc1ccccc1)c1ccccc1 (centres unmarked)	17.7
Cc1cccc(C(=O)C2CCN(S(=O)(=O)c3ccc(C(=O)O)cc3)CC2)c1	-0.78
O=C(NNC(=O)c1ccc(Br)cc1)c1ccncc1	14.6

SMILES	hERG current change (%, negative = inhibition) at 10uM [%]
CCOc1ccc2c(c1)C(=NNC(=O)c1ccncc1)c1cc(OCC)ccc1-2	17.1
COc1cc(OC)cc(C(=O)N[C@H](C(=O)OCC(=O)Nc2ccc(C)cc2C)C(C)C)c1	-21.2
CN(C)C(CNC(=O)c1cccc(NS(=O)(=O)c2ccc(Br)cc2)c1)c1ccco1 (centres unmarked)	-28.8
COC(=O)CCC(=O)OC1(C)C(=O)C=C2C=C(C3CC3)N(CCc3c[nH]c4ccccc34)C=C2C1=O (centres unmarked)	9.18
CC(=O)Oc1ccc(C(=O)NC(C)CCc2ccccc2)cc1 (centres unmarked)	9.89
CC(=O)c1csc(COc2ccccc2)n1	12.9
Cc1ccc(C(=O)NCc2ccc3c(c2)OCO3)c(C)c1	1.18
COc1cccc(C2NC(=S)NC3=C2CCc2ccccc23)c1 (centres unmarked)	-0.748
CCC1=NC(c2ccc(OC)c(OC)c2)N(O)C1(C)C (centres unmarked)	17.8
CN1CCN(C(=O)c2ccccc2Nc2ccc(SC(F)F)cc2)CC1.Cl	-26
CC(C)c1ccccc1OCC(=O)Nc1ccc2[nH]ncc2c1	5.26
NS(=O)(=O)c1ccc(CCNC(=O)c2ccc(=O)[nH]c2)cc1	24.2
Cc1ccc(Cl)cc1NC(=O)CC1NC2CCCCC2NC1=O (centres unmarked)	17.6
CCN(CC)CCOCCOc1cc(C)c(Cl)c(C)c1	-44.4
Cn1c(=O)c2c(SCC(=O)NCC3CCCO3)nc(-c3ccccc3Cl)nc2n(C)c1=O (centres unmarked)	-35.2
CCc1c(C)[nH]n(CCC#N)c1=O	-0.107
CCOc1cc(/C=N/Nc2nc(N3CCCCC3)nc(N3CCCCC3)n2)ccc1OC(=O)c1ccco1	19.8
Cc1nc(N2CCCCC2)nc(N2CCCCC2)c1C=O	5.95
Cc1ccc(S(=O)(=O)N2CCN(C(=O)CCc3nc4ccccc4c(=O)[nH]3)CC2)c(C)c1	-25.9
O=C(C/C=N\OCc1c(Cl)cccc1Cl)Oc1ccc(Cl)cc1Cl	4.03
Cc1csc(NC(=O)C2CCCCN2S(=O)(=O)c2ccccc2)n1 (centres unmarked)	0.799
COc1ccccc1OCC(O)Cn1nc(C)cc1C (centres unmarked)	9.76
CCOC(=O)c1cc(-c2ccc(/C=N\n3cnnc3)o2)ccc1Cl	-37.3

SMILES	hERG current change (%, negative = inhibition) at 10uM [%]
COc1ccc(C2c3ccc(O)cc3Oc3ncn(CCCO)c(=N)c32)cc1OC (centres unmarked)	-6.28
CCOC(=O)C1CCCN(C(=O)Cn2nc(Cc3cccnc3)c3ccccc3c2=O)C1 (centres unmarked)	-3.9
O=C1CCC([N+](=O)[O-])C(c2ccc(F)c(Br)c2)N1 (centres unmarked)	-0.459
O=[N+]([O-])c1ccc(N/N=C2\CC3CC=CC23)c([N+](=O)[O-])c1 (centres unmarked)	-29.3
CN1CCN(Cc2c(C(=O)N/N=C/c3cccc(Br)c3)nnn2-c2nonc2N)CC1	-74.8
Cc1cc2nnc(SCC(=O)N3CCOCC3)n2c2ccccc12	24.2
O=C(NN1C(=O)C2C3C=CC(C4CC34)C2C1=O)c1ccc(Cl)cc1 (centres unmarked)	10.8
CCOC(=O)C1CCCN(C(=O)c2ccc(Cl)cc2)C1 (centres unmarked)	0.557
COc1cccc(/C=N/Nc2ccc(Cl)nn2)c1	11.1
Cc1ccc(CNC(=O)c2c(C)cc(=O)oc2C)cc1	-14.6
CN(c1ccccc1)c1nccc(=O)[nH]1	5.75
CC(/C=N/n1c(-c2n[nH]c3c2CCC3)n[nH]c1=S)=C\c1ccco1	4.9
Cc1[nH]c2ccccc2c1C(=O)CSc1nc2ccccc2c(=O)n1-c1ccccc1F	15.3
Nc1nnnn1NCc1cccc(OCc2ccccc2)c1	0.809
O=C(NCCc1ccccc1)c1cnc2ccccc2n1	-9.16
O=C(COc1ccccc1Cl)OCC(=O)N1CCN(S(=O)(=O)c2ccccc2)CC1	-12.8
Cc1ccc2c(CN3CCN(CCO)CC3)cc(=O)oc2c1C	-15.5
CCN(CC)C(C)C(=O)Nc1c2c(cc3c1CCC3)CCC2.Cl (centres unmarked)	-2.41
O=C(c1cc(-c2ccc(Br)cc2)nc2ccccc12)N1CCN(c2ccccc2O)CC1	1.51
CCOC(=O)COc1c(/C=N\OC)cc(Cl)cc1OC	0.872
